Results from the supplement of paper PMC12217912.
Some of the results follow. The full chains were built here from the parent and the listed change. Values near 0.05 are background.

B1: TEV protease; numbered along this chain (parent)
chain: MGESLFKGPRDYNPISSSICHLTNESDGHTTSLYGIGFGPFIITNKHLFRRNNGTLVVQSLHGVFKVKDTTTLQQHLVDGRDMIIIRMPKDFPPFPQKLKFREPQREERICLVTTNFQTKSMSSMVSDTSCTFPSGDGIFWKHWIQTKDGQCGSPLVSTRDGFIVGIHSASNFTNTNNYFTSVPKNFMELLTNQEAQQWVSGWRLNADSVLWGGHKVFMVKPEEPFQPVKEATQL

Variants of: B1
Assay: raw area under fraction-flipped curve 0-4 h after induction (AUC4h, not background-subtracted), DNA-recorder readout of cleavage of the substrate (dimensionless); higher = more cleavage of the substrate by the protease variant
Details: temperature: 34 °C; time window: 0-4 h after rhamnose induction
Procedure: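 In vivo DNA recorder in E. coli TOP10(DE3) ΔrhaA at 34 °C. Each TEVp single-site mutant (parent TEVp 0) is paired with a single-site variant of the 7-mer TEVs (canonical ENLYFQ|S). The substrate sits between flexible linkers in a Bxb1-sfGFP-TEVs-SsrA fusion, so cleavage stabilises Bxb1 and speeds flipping of a recombination array, read by NGS. The value is the raw area under the fraction-flipped curve over 0-4 h after rhamnose induction (AUC4h), with ≥20 reads per time point. It is not background-subtracted; inactive controls average about 0.047.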
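Note: Bxb1 expression induced with 0.2% (w/v) L-rhamnose at OD600 near 0.5, cultures sampled hourly, flipped fraction per protease–substrate barcode pair counted by paired-end Illumina sequencing.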

MGESLFKGPRDYNPISSSICYLTNESDGHTTSLYGIGFGPFIITNKHLFRRNNGTLVVQSLHGVFKVKDTTTLQQHLVDGRDMIIIRMPKDFPPFPQKLKFREPQREERICLVTTNFQTKSMSSMVSDTSCTFPSGDGIFWKHWIQTKDGQCGSPLVSTRDGFIVGIHSASNFTNTNNYFTSVPKNFMELLTNQEAQQWVSGWRLNADSVLWGGHKVFMVKPEEPFQPVKEATQL [H21Y]
area with substrate ENLCFQS: 0.0757
area with substrate ENLDFQS: 0.0684
area with substrate ENLEFQS: 0.0594
area with substrate ENLFFQS: 0.0735
area with substrate ENLHFQS: 0.0682
area with substrate ENLIFQS: 0.074
area with substrate ENLKFQS: 0.0706
area with substrate ENLLFQS: 0.0679
area with substrate ENLMFQS: 0.0597
area with substrate ENLNFQS: 0.0532
area with substrate ENLPFQS: 0.0533
area with substrate ENLQFQS: 0.0576
area with substrate ENLSFQS: 0.0849
area with substrate ENLWFQS: 0.0534

MGESLFKGPRDYNPISSSICHLTNESAGHTTSLYGIGFGPFIITNKHLFRRNNGTLVVQSLHGVFKVKDTTTLQQHLVDGRDMIIIRMPKDFPPFPQKLKFREPQREERICLVTTNFQTKSMSSMVSDTSCTFPSGDGIFWKHWIQTKDGQCGSPLVSTRDGFIVGIHSASNFTNTNNYFTSVPKNFMELLTNQEAQQWVSGWRLNADSVLWGGHKVFMVKPEEPFQPVKEATQL [D27A]
area with substrate ENLCFQS: 0.0704
area with substrate ENLDFQS: 0.058
area with substrate ENLEFQS: 0.0745
area with substrate ENLFFQS: 0.078
area with substrate ENLGFQS: 0.0775
area with substrate ENLHFQS: 0.0553
area with substrate ENLIFQS: 0.0798
area with substrate ENLKFQS: 0.0699
area with substrate ENLLFQS: 0.0657
area with substrate ENLNFQS: 0.08
area with substrate ENLPFQS: 0.0599
area with substrate ENLQFQS: 0.0707
area with substrate ENLRFQS: 0.0765
area with substrate ENLSFQS: 0.0564
area with substrate ENLVFQS: 0.0577

MGESLFKGPRDYNPISSSICHLTNESDGLTTSLYGIGFGPFIITNKHLFRRNNGTLVVQSLHGVFKVKDTTTLQQHLVDGRDMIIIRMPKDFPPFPQKLKFREPQREERICLVTTNFQTKSMSSMVSDTSCTFPSGDGIFWKHWIQTKDGQCGSPLVSTRDGFIVGIHSASNFTNTNNYFTSVPKNFMELLTNQEAQQWVSGWRLNADSVLWGGHKVFMVKPEEPFQPVKEATQL [H29L]
area with substrate ENLCFQS: 0.0681
area with substrate ENLEFQS: 0.0667
area with substrate ENLFFQS: 0.0707
area with substrate ENLGFQS: 0.0639
area with substrate ENLHFQS: 0.0723
area with substrate ENLIFQS: 0.0854
area with substrate ENLKFQS: 0.0678
area with substrate ENLLFQS: 0.0876
area with substrate ENLNFQS: 0.0584
area with substrate ENLPFQS: 0.048
area with substrate ENLQFQS: 0.0967
area with substrate ENLRFQS: 0.0841
area with substrate ENLSFQS: 0.0828
area with substrate ENLVFQS: 0.166

MGESLFKGPRDYNPISSSICHLTNESDGHFTSLYGIGFGPFIITNKHLFRRNNGTLVVQSLHGVFKVKDTTTLQQHLVDGRDMIIIRMPKDFPPFPQKLKFREPQREERICLVTTNFQTKSMSSMVSDTSCTFPSGDGIFWKHWIQTKDGQCGSPLVSTRDGFIVGIHSASNFTNTNNYFTSVPKNFMELLTNQEAQQWVSGWRLNADSVLWGGHKVFMVKPEEPFQPVKEATQL [T30F]
area with substrate ENLCFQS: 0.0795
area with substrate ENLDFQS: 0.0597
area with substrate ENLEFQS: 0.0689
area with substrate ENLFFQS: 0.0777
area with substrate ENLGFQS: 0.0784
area with substrate ENLIFQS: 0.0731
area with substrate ENLKFQS: 0.0902
area with substrate ENLLFQS: 0.0693
area with substrate ENLMFQS: 0.0813
area with substrate ENLNFQS: 0.0617
area with substrate ENLPFQS: 0.0537
area with substrate ENLQFQS: 0.0713
area with substrate ENLRFQS: 0.0839
area with substrate ENLSFQS: 0.0561
area with substrate ENLVFQS: 0.0978
area with substrate ENLWFQS: 0.0579

MGESLFKGPRDYNPISSSICHLTNESDGHTWSLYGIGFGPFIITNKHLFRRNNGTLVVQSLHGVFKVKDTTTLQQHLVDGRDMIIIRMPKDFPPFPQKLKFREPQREERICLVTTNFQTKSMSSMVSDTSCTFPSGDGIFWKHWIQTKDGQCGSPLVSTRDGFIVGIHSASNFTNTNNYFTSVPKNFMELLTNQEAQQWVSGWRLNADSVLWGGHKVFMVKPEEPFQPVKEATQL [T31W]
area with substrate ENLCFQS: 0.0657
area with substrate ENLDFQS: 0.0795
area with substrate ENLEFQS: 0.0591
area with substrate ENLGFQS: 0.06
area with substrate ENLHFQS: 0.0712
area with substrate ENLKFQS: 0.0676
area with substrate ENLLFQS: 0.0766
area with substrate ENLMFQS: 0.0776
area with substrate ENLPFQS: 0.066
area with substrate ENLRFQS: 0.081
area with substrate ENLSFQS: 0.0532
area with substrate ENLWFQS: 0.0512

MGESLFKGPRDYNPISSSICHLTNESDGHTTHLYGIGFGPFIITNKHLFRRNNGTLVVQSLHGVFKVKDTTTLQQHLVDGRDMIIIRMPKDFPPFPQKLKFREPQREERICLVTTNFQTKSMSSMVSDTSCTFPSGDGIFWKHWIQTKDGQCGSPLVSTRDGFIVGIHSASNFTNTNNYFTSVPKNFMELLTNQEAQQWVSGWRLNADSVLWGGHKVFMVKPEEPFQPVKEATQL [S32H]
area with substrate ENLCFQS: 0.0775
area with substrate ENLDFQS: 0.0625
area with substrate ENLEFQS: 0.0577
area with substrate ENLFFQS: 0.0887
area with substrate ENLGFQS: 0.0627
area with substrate ENLHFQS: 0.0708
area with substrate ENLIFQS: 0.0754
area with substrate ENLKFQS: 0.0812
area with substrate ENLLFQS: 0.0453
area with substrate ENLNFQS: 0.0485
area with substrate ENLPFQS: 0.0575
area with substrate ENLQFQS: 0.0681
area with substrate ENLRFQS: 0.0615
area with substrate ENLSFQS: 0.0609
area with substrate ENLTFQS: 0.0662
area with substrate ENLWFQS: 0.0676

MGESLFKGPRDYNPISSSICHLTNESDGHTTSLYGIPFGPFIITNKHLFRRNNGTLVVQSLHGVFKVKDTTTLQQHLVDGRDMIIIRMPKDFPPFPQKLKFREPQREERICLVTTNFQTKSMSSMVSDTSCTFPSGDGIFWKHWIQTKDGQCGSPLVSTRDGFIVGIHSASNFTNTNNYFTSVPKNFMELLTNQEAQQWVSGWRLNADSVLWGGHKVFMVKPEEPFQPVKEATQL [G37P]
area with substrate ENLCFQS: 0.0439
area with substrate ENLDFQS: 0.0428
area with substrate ENLEFQS: 0.0627
area with substrate ENLFFQS: 0.057
area with substrate ENLHFQS: 0.052
area with substrate ENLIFQS: 0.0749
area with substrate ENLKFQS: 0.0575
area with substrate ENLLFQS: 0.0363
area with substrate ENLMFQS: 0.0548
area with substrate ENLNFQS: 0.092
area with substrate ENLQFQS: 0.054
area with substrate ENLSFQS: 0.0489
area with substrate ENLTFQS: 0.0706

MGESLFKGPRDYNPISSSICHLTNESDGHTTSLYGIGFGPWIITNKHLFRRNNGTLVVQSLHGVFKVKDTTTLQQHLVDGRDMIIIRMPKDFPPFPQKLKFREPQREERICLVTTNFQTKSMSSMVSDTSCTFPSGDGIFWKHWIQTKDGQCGSPLVSTRDGFIVGIHSASNFTNTNNYFTSVPKNFMELLTNQEAQQWVSGWRLNADSVLWGGHKVFMVKPEEPFQPVKEATQL [F41W]
area with substrate ENLCFQS: 0.0658
area with substrate ENLDFQS: 0.0632
area with substrate ENLEFQS: 0.0601
area with substrate ENLFFQS: 0.0757
area with substrate ENLHFQS: 0.0569
area with substrate ENLIFQS: 0.0651
area with substrate ENLKFQS: 0.0672
area with substrate ENLLFQS: 0.0614
area with substrate ENLNFQS: 0.0655
area with substrate ENLPFQS: 0.0695
area with substrate ENLQFQS: 0.0651
area with substrate ENLSFQS: 0.0568
area with substrate ENLTFQS: 0.0623
area with substrate ENLVFQS: 0.0669
area with substrate ENLWFQS: 0.0769
